Assay [1] has as its target SMAD3 wild type, exogenous, in HEK293T cells (UniProt P84022). Put plainly: co-IP; IP and western blot of HEK293T cells (Figure 4C stimulated by TGF-β1; Figure 4D SMAD3 WT, 2KQ or 2KR). A general note: Immunoblotting shows a protein as a band on a membrane.
In assay [2] the target is SMAD3 K20/117R, acetylation-deficient mutant, in HEK293T cells (UniProt P84022). The description is as above.
Assay [3] addresses HA-tagged SMAD3 WT, overexpressed in MDA-MB-231 and BT-549 cells (UniProt P84022). Put plainly: co-IP; IP and western blot of MDA-MB-231 and BT-549 cells (Figure 4A with TGF-β1 and TRIM24 overexpression; Figure 4E with SMAD3 WT, 2KQ or 2KR; Figure 4F MDA-MB-231/tetO-shKAT6A with or without Dox; Figure 4G MDA-MB-231).
Assay [4] has as its target HA-tagged SMAD3 K20/117R (2KR), overexpressed in MDA-MB-231 and BT-549 cells (UniProt P84022). The description is as above.
Assay [5] has as its target SMAD3, endogenous (human (endogenous in MDA-MB-231 and BT-549)) (UniProt P84022). Described as above.
For assay [6], the target named is HA-tagged SMAD3 K20/117Q (2KQ), overexpressed in MDA-MB-231 and BT-549 cells (UniProt P84022). Described as above.
The next assay has as its target SMAD4 in HEK293T cells (UniProt Q13485). Briefly: co-IP; IP and western blot of HEK293T cells (Figure 4C stimulated by TGF-β1; Figure 4D SMAD3 WT, 2KQ or 2KR).
For assay [7], the target named is SMAD3 K20/117Q, acetylation-mimetic mutant, in HEK293T cells (UniProt P84022). The assay is described as above.
For a further assay, the target named is SMAD2 in HEK293T cells (UniProt Q15796). The description is as above.

Amino acid sequences for entries named in this document (tags omitted). A change or cut given only in a name is not applied to a line headed by its entry. Chains listed by the source or under a name are the forms on record and can include a tag or linker.
UniProt P84022: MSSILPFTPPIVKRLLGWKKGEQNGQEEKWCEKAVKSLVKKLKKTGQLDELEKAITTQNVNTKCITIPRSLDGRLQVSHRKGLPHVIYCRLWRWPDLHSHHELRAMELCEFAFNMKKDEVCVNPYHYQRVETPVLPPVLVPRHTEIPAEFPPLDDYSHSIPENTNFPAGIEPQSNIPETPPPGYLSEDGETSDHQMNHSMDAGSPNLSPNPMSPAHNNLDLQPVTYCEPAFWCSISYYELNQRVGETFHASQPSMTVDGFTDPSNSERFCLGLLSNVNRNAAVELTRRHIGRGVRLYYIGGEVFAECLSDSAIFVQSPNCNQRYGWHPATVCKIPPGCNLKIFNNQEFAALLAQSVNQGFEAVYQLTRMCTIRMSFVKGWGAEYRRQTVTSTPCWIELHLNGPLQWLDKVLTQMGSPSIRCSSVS
SMAD3 K20/117R, acetylation-deficient mutant, in HEK293T cells (P84022, form named): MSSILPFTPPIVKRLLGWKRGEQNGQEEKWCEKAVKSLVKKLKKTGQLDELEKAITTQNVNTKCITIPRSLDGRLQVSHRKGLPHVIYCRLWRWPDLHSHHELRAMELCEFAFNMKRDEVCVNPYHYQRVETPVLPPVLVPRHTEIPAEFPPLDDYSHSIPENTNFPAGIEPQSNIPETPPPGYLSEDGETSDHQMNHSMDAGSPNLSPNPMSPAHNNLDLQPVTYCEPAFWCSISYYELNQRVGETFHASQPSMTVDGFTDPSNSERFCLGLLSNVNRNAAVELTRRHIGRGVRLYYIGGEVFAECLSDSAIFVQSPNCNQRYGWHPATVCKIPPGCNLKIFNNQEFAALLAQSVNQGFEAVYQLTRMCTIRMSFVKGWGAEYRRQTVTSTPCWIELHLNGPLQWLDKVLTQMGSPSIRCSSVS
SMAD3 K20/117Q, acetylation-mimetic mutant, in HEK293T cells (P84022, form named): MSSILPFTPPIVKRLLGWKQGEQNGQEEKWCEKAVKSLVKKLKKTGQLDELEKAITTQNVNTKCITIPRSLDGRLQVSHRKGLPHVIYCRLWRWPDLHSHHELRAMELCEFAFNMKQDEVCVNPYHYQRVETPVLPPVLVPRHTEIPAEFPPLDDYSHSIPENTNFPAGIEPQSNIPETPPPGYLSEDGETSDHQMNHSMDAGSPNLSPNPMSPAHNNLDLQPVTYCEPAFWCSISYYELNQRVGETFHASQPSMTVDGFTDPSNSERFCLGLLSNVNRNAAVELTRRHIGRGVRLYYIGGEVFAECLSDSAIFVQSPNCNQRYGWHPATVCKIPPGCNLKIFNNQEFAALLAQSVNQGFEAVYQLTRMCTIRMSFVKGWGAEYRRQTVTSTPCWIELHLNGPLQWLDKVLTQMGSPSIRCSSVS
UniProt Q13485: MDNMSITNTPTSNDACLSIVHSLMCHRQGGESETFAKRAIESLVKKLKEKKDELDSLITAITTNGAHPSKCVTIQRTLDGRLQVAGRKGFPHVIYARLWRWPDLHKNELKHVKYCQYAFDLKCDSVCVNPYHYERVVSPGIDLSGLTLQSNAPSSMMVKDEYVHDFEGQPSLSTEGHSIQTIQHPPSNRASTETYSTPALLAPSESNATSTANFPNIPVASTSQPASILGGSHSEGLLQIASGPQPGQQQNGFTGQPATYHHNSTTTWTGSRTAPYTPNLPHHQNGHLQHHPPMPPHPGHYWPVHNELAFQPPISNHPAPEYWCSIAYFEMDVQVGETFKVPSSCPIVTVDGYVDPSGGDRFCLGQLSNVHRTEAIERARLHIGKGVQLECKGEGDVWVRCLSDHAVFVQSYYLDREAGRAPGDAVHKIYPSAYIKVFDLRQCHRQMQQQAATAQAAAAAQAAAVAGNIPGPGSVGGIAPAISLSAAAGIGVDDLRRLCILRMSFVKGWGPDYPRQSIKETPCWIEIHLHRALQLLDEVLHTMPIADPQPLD
UniProt Q15796: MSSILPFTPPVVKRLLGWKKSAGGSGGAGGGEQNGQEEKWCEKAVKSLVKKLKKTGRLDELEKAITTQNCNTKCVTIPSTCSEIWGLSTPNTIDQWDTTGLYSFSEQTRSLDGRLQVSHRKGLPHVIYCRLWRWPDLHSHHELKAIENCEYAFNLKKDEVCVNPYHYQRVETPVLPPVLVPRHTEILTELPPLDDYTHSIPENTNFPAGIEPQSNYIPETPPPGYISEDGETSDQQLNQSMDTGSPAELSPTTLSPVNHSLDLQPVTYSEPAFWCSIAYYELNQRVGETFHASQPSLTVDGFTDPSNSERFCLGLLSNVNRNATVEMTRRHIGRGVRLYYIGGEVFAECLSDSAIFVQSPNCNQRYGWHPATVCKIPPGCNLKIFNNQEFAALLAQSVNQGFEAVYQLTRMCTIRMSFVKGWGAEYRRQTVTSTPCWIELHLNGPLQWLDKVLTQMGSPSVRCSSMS

Changes are numbered by the printed parent chain. Names and notes keep the numbering of the source. These are yes or no findings as the source states them, for the method shown. Binding seen in cells or lysates may run through a third protein. Some results given as binding are weak or reduced against the parent protein; the word gives no strength. For some of these results: Sequences can lack the tags named with a protein.

B1: TRIM33 in HEK293T cells (protein, UniProt Q9UPN9 1-1127)
chain: MAENKGGGEAESGGGGSGSAPVTAGAAGPAAQEAEPPLTAVLVEEEEEEGGRAGAEGGAAGPDDGGVAAASSGSAQAASSPAASVGTGVAGGAVSTPAPAPASAPAPGPSAGPPPGPPASLLDTCAVCQQSLQSRREAEPKLLPCLHSFCLRCLPEPERQLSVPIPGGSNGDIQQVGVIRCPVCRQECRQIDLVDNYFVKDTSEAPSSSDEKSEQVCTSCEDNASAVGFCVECGEWLCKTCIEAHQRVKFTKDHLIRKKEDVSESVGASGQRPVFCPVHKQEQLKLFCETCDRLTCRDCQLLEHKEHRYQFLEEAFQNQKGAIENLLAKLLEKKNYVHFAATQVQNRIKEVNETNKRVEQEIKVAIFTLINEINKKGKSLLQQLENVTKERQMKLLQQQNDITGLSRQVKHVMNFTNWAIASGSSTALLYSKRLITFQLRHILKARCDPVPAANGAIRFHCDPTFWAKNVVNLGNLVIESKPAPGYTPNVVVGQVPPGTNHISKTPGQINLAQLRLQHMQQQVYAQKHQQLQQMRMQQPPAPVPTTTTTTQQHPRQAAPQMLQQQPPRLISVQTMQRGNMNCGAFQAHQMRLAQNAARIPGIPRHSGPQYSMMQPHLQRQHSNPGHAGPFPVVSVHNTTINPTSPTTATMANANRGPTSPSVTAIELIPSVTNPENLPSLPDIPPIQLEDAGSSSLDNLLSRYISGSHLPPQPTSTMNPSPGPSALSPGSSGLSNSHTPVRPPSTSSTGSRGSCGSSGRTAEKTSLSFKSDQVKVKQEPGTEDEICSFSGGVKQEKTEDGRRSACMLSSPESSLTPPLSTNLHLESELDALASLENHVKIEPADMNESCKQSGLSSLVNGKSPIRSLMHRSARIGGDGNNKDDDPNEDWCAVCQNGGDLLCCEKCPKVFHLTCHVPTLLSFPSGDWICTFCRDIGKPEVEYDCDNLQHSKKGKTAQGLSPVDQRKCERLLLYLYCHELSIEFQEPVPASIPNYYKIIKKPMDLSTVKKKLQKKHSQHYQIPDDFVADVRLIFKNCERFNEMMKVVQVYADTQEINLKADSEVAQAGKAVALYFEDKLTEIYSDRTFAPLPEFEQEEDDGEVTEDSDEDFIQPRRKRLKSDERPVHIK
For the molecule B1, the binding result in [1] and in assay [2] was “binds” throughout.

B2: TRIM33 in MDA-MB-231 and BT-549 cells (protein, UniProt Q9UPN9 1-1127)
chain: B1 chain
Regarding B2, the binding result in assay [3], in [4] and in [5] was “binds” in each case.

B3: Flag-TRIM24 WT, exogenous, in MDA-MB-231 and BT-549 cells (protein, UniProt O15164 1-1050)
chain: MEVAVEKAVAAAAAASAAASGGPSAAPSGENEAESRQGPDSERGGEAARLNLLDTCAVCHQNIQSRAPKLLPCLHSFCQRCLPAPQRYLMLPAPMLGSAETPPPVPAPGSPVSGSSPFATQVGVIRCPVCSQECAERHIIDNFFVKDTTEVPSSTVEKSNQVCTSCEDNAEANGFCVECVEWLCKTCIRAHQRVKFTKDHTVRQKEEVSPEAVGVTSQRPVFCPFHKKEQLKLYCETCDKLTCRDCQLLEHKEHRYQFIEEAFQNQKVIIDTLITKLMEKTKYIKFTGNQIQNRIIEVNQNQKQVEQDIKVAIFTLMVEINKKGKALLHQLESLAKDHRMKLMQQQQEVAGLSKQLEHVMHFSKWAVSSGSSTALLYSKRLITYRLRHLLRARCDASPVTNNTIQFHCDPSFWAQNIINLGSLVIEDKESQPQMPKQNPVVEQNSQPPSGLSSNQLSKFPTQISLAQLRLQHMQQQVMAQRQQVQRRPAPVGLPNPRMQGPIQQPSISHQQPPPRLINFQNHSPKPNGPVLPPHPQQLRYPPNQNIPRQAIKPNPLQMAFLAQQAIKQWQISSGQGTPSTTNSTSSTPSSPTITSAAGYDGKAFGSPMIDLSSPVGGSYNLPSLPDIDCSSTIMLDNIVRKDTNIDHGQPRPPSNRTVQSPNSSVPSPGLAGPVTMTSVHPPIRSPSASSVGSRGSSGSSSKPAGADSTHKVPVVMLEPIRIKQENSGPPENYDFPVVIVKQESDEESRPQNANYPRSILTSLLLNSSQSSTSEETVLRSDAPDSTGDQPGLHQDNSSNGKSEWLDPSQKSPLHVGETRKEDDPNEDWCAVCQNGGELLCCEKCPKVFHLSCHVPTLTNFPSGEWICTFCRDLSKPEVEYDCDAPSHNSEKKKTEGLVKLTPIDKRKCERLLLFLYCHEMSLAFQDPVPLTVPDYYKIIKNPMDLSTIKKRLQEDYSMYSKPEDFVADFRLIFQNCAEFNEPDSEVANAGIKLENYFEELLKNLYPEKRFPKPEFRNESEDNKFSDDSDDDFVQPRKKRLKSIEERQLLK
On to B3, for which, in assay [5], the binding result is “binds”.

B4: Flag-TRIM24 F979A/N980A mutant (protein, UniProt O15164 1-1050)
chain: B3 chain with F979A, N980A
Consider B4, for which the binding result in assay [5] is recorded as “binds”.

B5: TRIM24 in MDA-MB-231 and BT-549 cells (protein, UniProt O15164 1-1050)
chain: B3 chain
For the molecule B5, the binding entry in assay [3], in assay [4], in assay [5] and in assay [6] was “binds” throughout.

B6: TRIM24 in HEK293T cells (protein, UniProt O15164 1-1050)
chain: B3 chain
In the case of B6, the binding entry is on record as “no binding” in the assay with SMAD4 in HEK293T cells; “binds” in assay [1]; “binds” in assay [2]; “binds” in assay [7]; “no binding” with SMAD2 in HEK293T cells.

The record behind these values is PMC8529494.
